Test results reported in patent US20230346949A1, “A METHOD OF FORMING A CONJUGATE OF A SULFONAMIDE AND A POLYPEPTIDE” (SANOFI, priority 2019, published 2023).

Target: human insulin receptor isoform B (human)
Assay: cell-based or functional assay

B1: Glu(A14)His(B16)Ala(B25)Des(B30)-Insulin (ligand)
chain 1: not shown
chain 2: FVNQHLCGSHLVEALHLVCGERGFAYTPK
  Autophosphorylation activity (relative to human insulin): 0.11
